Two molecules from publication PMC9723945 can be followed below.

Common to all, as to experiment: co-IP; HEK293T cells co-transfected, 48 h; solubilised in 150 mM NaCl, 25 mM Hepes pH 7.2, 1 mM EDTA, 1% Triton X-100 overnight at 4 °C; anti-HA or anti-Myc agarose beads overnight at 4 °C, washed 3x; Western blot; B1FL with B1ΔCT tested without and with coexpressed ATP11A
The target of test [1] is T1, His/myc-tagged B1ΔCT (1-1200) (human) (UniProt O14514).
T1 sequence: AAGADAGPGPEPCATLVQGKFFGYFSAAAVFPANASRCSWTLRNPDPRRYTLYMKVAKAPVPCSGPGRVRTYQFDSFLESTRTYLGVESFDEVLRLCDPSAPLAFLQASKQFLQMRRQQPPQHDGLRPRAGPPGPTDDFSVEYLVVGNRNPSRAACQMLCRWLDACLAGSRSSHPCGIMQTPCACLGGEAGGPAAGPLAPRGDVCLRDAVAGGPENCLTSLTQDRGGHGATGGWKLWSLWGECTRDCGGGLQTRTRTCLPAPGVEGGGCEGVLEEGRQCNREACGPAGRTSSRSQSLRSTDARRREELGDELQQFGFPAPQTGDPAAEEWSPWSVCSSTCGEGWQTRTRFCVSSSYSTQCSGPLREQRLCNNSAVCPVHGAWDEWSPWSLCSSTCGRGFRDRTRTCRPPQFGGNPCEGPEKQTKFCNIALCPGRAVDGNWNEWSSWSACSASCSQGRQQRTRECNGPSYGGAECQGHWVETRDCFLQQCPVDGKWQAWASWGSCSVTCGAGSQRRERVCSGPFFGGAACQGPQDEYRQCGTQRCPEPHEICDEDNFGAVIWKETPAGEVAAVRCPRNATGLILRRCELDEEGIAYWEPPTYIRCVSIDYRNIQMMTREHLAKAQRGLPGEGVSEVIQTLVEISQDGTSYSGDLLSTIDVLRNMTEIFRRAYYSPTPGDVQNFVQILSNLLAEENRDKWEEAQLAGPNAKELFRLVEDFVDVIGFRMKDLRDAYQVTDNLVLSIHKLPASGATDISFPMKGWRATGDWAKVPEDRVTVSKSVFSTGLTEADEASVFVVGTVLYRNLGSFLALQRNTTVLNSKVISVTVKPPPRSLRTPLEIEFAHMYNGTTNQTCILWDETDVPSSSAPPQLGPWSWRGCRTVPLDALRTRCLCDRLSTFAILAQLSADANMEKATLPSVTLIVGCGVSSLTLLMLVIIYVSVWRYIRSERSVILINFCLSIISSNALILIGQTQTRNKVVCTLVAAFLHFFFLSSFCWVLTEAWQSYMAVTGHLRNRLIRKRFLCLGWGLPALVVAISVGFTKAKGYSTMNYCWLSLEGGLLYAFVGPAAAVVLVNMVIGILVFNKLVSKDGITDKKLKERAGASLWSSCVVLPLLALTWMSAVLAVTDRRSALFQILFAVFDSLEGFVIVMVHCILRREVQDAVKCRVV

Test [2] has as its target T2, myc-tagged B1-NTF (1-927) (human) (UniProt O14514).
T2 sequence: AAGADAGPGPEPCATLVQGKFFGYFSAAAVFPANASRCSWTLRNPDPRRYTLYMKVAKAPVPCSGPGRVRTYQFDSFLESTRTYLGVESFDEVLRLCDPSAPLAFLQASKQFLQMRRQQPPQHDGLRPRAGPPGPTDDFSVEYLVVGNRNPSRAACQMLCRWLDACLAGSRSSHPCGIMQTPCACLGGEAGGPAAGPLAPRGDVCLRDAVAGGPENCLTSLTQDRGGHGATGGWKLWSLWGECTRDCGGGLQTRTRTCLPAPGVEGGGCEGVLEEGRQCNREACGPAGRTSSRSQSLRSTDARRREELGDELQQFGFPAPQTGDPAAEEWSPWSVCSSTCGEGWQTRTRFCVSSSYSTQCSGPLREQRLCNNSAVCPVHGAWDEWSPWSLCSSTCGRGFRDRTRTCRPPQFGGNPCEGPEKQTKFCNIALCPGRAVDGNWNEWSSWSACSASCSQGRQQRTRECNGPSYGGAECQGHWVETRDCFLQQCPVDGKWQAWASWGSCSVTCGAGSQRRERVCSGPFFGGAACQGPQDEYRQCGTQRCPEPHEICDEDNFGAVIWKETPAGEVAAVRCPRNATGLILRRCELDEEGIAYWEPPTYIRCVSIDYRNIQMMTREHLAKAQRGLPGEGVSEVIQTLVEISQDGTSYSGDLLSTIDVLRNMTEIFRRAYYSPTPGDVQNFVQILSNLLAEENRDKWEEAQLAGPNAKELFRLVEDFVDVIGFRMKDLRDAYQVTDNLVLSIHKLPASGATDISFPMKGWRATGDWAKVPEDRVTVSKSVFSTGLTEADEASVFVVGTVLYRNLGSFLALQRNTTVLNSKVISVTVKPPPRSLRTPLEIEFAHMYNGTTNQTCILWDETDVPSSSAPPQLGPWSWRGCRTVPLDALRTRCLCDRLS

In test [3] the target is T3, HA-tagged B1ΔNT (927-1584) (human) (UniProt O14514).
T3 sequence: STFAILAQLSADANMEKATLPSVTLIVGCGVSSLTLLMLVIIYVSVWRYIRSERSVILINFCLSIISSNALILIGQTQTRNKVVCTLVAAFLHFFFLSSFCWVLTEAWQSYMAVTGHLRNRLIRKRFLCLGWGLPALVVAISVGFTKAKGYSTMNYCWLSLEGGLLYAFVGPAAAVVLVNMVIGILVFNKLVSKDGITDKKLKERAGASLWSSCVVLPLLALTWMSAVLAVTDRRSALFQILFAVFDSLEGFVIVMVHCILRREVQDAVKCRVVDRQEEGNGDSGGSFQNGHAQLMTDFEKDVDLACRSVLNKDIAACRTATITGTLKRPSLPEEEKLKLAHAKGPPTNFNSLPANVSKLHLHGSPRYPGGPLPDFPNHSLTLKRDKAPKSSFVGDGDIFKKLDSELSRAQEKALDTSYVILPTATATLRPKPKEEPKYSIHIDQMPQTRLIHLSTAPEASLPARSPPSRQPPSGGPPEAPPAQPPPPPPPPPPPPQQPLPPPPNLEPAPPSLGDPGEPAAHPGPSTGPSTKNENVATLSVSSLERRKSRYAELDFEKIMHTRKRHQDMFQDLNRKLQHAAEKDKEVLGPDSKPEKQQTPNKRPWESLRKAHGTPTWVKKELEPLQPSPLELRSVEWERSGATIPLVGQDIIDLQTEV

For test [4], the target named is T1, His/myc-tagged B1ΔCT (1-1200) (human). The source holds these as a separate data set.
Test [5] deals with T2, myc-tagged B1-NTF (1-927) (human). This is another data set of the same source.

Where two headings read alike, the source gives them in different places. No constants are given. Whether binding was seen depends on the method and setting. Binding seen in cells or lysates may run through a third protein. Some entries that bind do so weakly or less than the wild type. Where a sequence is shown, tags or fusion partners need not be part of it.

As for “Brain-specific angiogenesis inhibitor 1, full-length (B1FL) (from UniProt O14514 31-1584) (receptor)”, the figures for the binding entry in test [1], in test [2] and in test [3] were “binds”, “no binding” and “binds”, respectively.

B1: HA-ATP11A (phosphatidylserine flippase ATP11A) (enzyme, UniProt P98196 1-1134)
chain: MDCSLVRTLVHRYCAGEENWVDSRTIYVGHREPPPGAEAYIPQRYPDNRIVSSKYTFWNFIPKNLFEQFRRVANFYFLIIFLVQLIIDTPTSPVTSGLPLFFVITVTAIKQGYEDWLRHKADNAMNQCPVHFIQHGKLVRKQSRKLRVGDIVMVKEDETFPCDLIFLSSNRGDGTCHVTTASLDGESSHKTHYAVQDTKGFHTEEDIGGLHATIECEQPQPDLYKFVGRINVYSDLNDPVVRPLGSENLLLRGATLKNTEKIFGVAIYTGMETKMALNYQSKSQKRSAVEKSMNAFLIVYLCILISKALINTVLKYMWQSEPFRDEPWYNQKTESERQRNLFLKAFTDFLAFMVLFNYIIPVSMYVTVEMQKFLGSYFITWDEDMFDEETGEGPLVNTSDLNEELGQVEYIFTDKTGTLTENNMEFKECCIEGHVYVPHVICNGQVLPESSGIDMIDSSPSVNGREREELFFRALCLCHTVQVKDDDSVDGPRKSPDGGKSCVYISSSPDEVALVEGVQRLGFTYLRLKDNYMEILNRENHIERFELLEILSFDSVRRRMSVIVKSATGEIYLFCKGADSSIFPRVIEGKVDQIRARVERNAVEGLRTLCVAYKRLIQEEYEGICKLLQAAKVALQDREKKLAEAYEQIEKDLTLLGATAVEDRLQEKAADTIEALQKAGIKVWVLTGDKMETAAATCYACKLFRRNTQLLELTTKRIEEQSLHDVLFELSKTVLRHSGSLTRDNLSGLSADMQDYGLIIDGAALSLIMKPREDGSSGNYRELFLEICRSCSAVLCCRMAPLQKAQIVKLIKFSKEHPITLAIGDGANDVSMILEAHVGIGVIGKEGRQAARNSDYAIPKFKHLKKMLLVHGHFYYIRISELVQYFFYKNVCFIFPQFLYQFFCGFSQQTLYDTAYLTLYNISFTSLPILLYSLMEQHVGIDVLKRDPTLYRDVAKNALLRWRVFIYWTLLGLFDALVFFFGAYFVFENTTVTSNGQIFGNWTFGTLVFTVMVFTVTLKLALDTHYWTWINHFVIWGSLLFYVVFSLLWGGVIWPFLNYQRMYYVFIQMLSSGPAWLAIVLLVTISLLPDVLKKVLCRQLWPTATERVQTKSQCLSVEQSTIFMLSQTSSSLSF
On to B1, for which the binding result in test [4] and in test [5] was “binds” each time.
